Reference: PubChem BioAssay (Tox21)
Values joined by “and” are separate entries in the source; they are usually repeats but may differ in a detail not shown here. Identical values can stand only once. Inconclusive results, whose numbers are uncertain, are shown with a selection of clear calls. For some assays here: A potency beside an inconclusive call is a rough fit, not a confirmed value. Active and inactive are the calls of the source. Unless noted, the call rests on the fitted dose curve; in most records, active means well fitted curve in the direction sought with a large enough effect in the repeat runs; inconclusive means weak or mixed curves; inactive means no such curve, though single readings can be large; an effect the other way counts as inactive or inconclusive.

Experiments:
[1] = qHTS assay to identify aromatase inhibitors - cell viability counter screen (AID 743084); conditions: MCF-7 aro ERE viability, CellTiter-Fluor, 24 h; activity change, negative = cytotoxicity: at 70.3 µM (top of the series);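 further: cells stimulated with testosterone during compound exposure; nearly all actives have a fitted effect of over 55% in size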; further: potency means the concentration at half of the fitted maximal effect
[2] = biological target: Peroxisome proliferator-activated receptor gamma (Homo sapiens) (UniProt P37231); assay: qHTS assay to identify small molecule agonists of the peroxisome proliferator-activated receptor gamma (PPARg) signaling pathway (AID 743094; active means well fitted activation curve with a large enough effect in the signal ratio in the repeat runs, not every such curve was filed as active; inconclusive means weak or mixed curves, or effect the other way; inactive means no such curve, though single readings can be large or run the other way; the % refers to the signal ratio; further: potency means the concentration at half of the fitted maximal effect; on activation: on the % scale 0 is the no-effect control and ±100 the full control effect); conditions: HEK293H PPARg-UAS-bla, beta-lactamase FRET ratio, 17 h; activation: at 57 µM (top of the series) unless noted
Sequence of UniProt P37231 (P37231 whole entry, looked up): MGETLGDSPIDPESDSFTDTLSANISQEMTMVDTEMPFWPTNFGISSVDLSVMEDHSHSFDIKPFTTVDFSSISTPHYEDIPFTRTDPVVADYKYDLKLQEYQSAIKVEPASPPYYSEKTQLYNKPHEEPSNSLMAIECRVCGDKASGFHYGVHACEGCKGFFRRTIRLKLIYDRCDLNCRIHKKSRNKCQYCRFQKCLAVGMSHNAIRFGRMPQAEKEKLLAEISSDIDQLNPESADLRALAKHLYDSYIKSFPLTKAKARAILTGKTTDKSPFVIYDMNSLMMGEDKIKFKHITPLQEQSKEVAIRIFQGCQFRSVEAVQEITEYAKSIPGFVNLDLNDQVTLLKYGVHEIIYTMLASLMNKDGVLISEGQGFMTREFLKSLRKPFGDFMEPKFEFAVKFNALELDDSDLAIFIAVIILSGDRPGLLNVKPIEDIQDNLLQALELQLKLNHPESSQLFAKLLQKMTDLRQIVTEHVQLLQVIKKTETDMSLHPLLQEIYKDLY
Method in brief: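 Beta-lactamase FRET fluorescence was the read-out after a 1 h room-temperature substrate step, following 17 h compound treatment at 37C of HEK293H cells expressing a UAS-driven bla reporter responsive to PPARg.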

[3] = biological target: Peroxisome proliferator-activated receptor gamma (Homo sapiens) (UniProt P37231); assay: qHTS assay to identify small molecule antagonists of the peroxisome proliferator-activated receptor gamma (PPARg) signaling pathway (AID 743191; calls by dose curve; further: nearly all actives have a fitted effect of over 30% in size; further: potency means the concentration at half of the fitted maximal effect; on ratio activity, negative = inhibition: on the % scale 0 is the no-effect control and ±100 the full control effect); conditions: HEK293H PPARg-UAS-bla, beta-lactamase ratio, antagonist, 17 h
Method in brief: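 GeneBLAzer PPARg UAS-bla HEK293H cells, 5 h post-plating, exposed to compounds 17 h at 37C. LiveBLAzer B/G FRET substrate added for 1 h at room temperature; beta-lactamase reporter read by fluorescence intensity.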

[4] = qHTS assay to identify small molecule antagonists of the peroxisome proliferator-activated receptor gamma (PPARg) signaling pathway - cell viability counter screen (AID 743194); conditions: PPARg-bla HEK293H viability, CellTiter-Glo luminescence, 17 h, co-treated with 50 nM rosiglitazone; activity change, negative = cytotoxicity: at 62.6 µM (top of the series); further: nearly all actives have a fitted effect of over 55% in size; further: potency means the concentration at half of the fitted maximal effect
Method in brief: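 Cytotoxicity counter screen in PPARg-bla HEK293H cells, same wells as reporter assay. Compounds plus 50 nM rosiglitazone (final) for 17 h at 37 C, then viability read by CellTiter-Glo luminescence.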

[5] = qHTS assay for small molecule agonists of the antioxidant response element (ARE) signaling pathway (AID 743202; active means well fitted activation curve with a large enough effect in the signal ratio in the repeat runs, not every such curve was filed as active; inconclusive means weak or mixed curves, or effect the other way; inactive means no such curve, though single readings can be large or run the other way; the % refers to the signal ratio; further: potency means the concentration at half of the fitted maximal effect; on activation: on the % scale 0 is the no-effect control and ±100 the full control effect); conditions: HepG2 ARE-bla reporter, beta-lactamase FRET, 16 h; activation: at 73.3 µM (top of the series) unless noted
Method in brief: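 Agonist mode reporter screen: HepG2 cells with ARE-controlled beta-lactamase are incubated with test compounds for 16 h at 37 C, and beta-lactamase activity is measured as fluorescence of cleaved B/G FRET substrate.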

[6] = qHTS assay for small molecule activators of the heat shock response signaling pathway - cell viability counter screen (AID 743209); conditions: HSE-bla HeLa viability, CellTiter-Glo luminescence, 5 h; activity change, negative = cytotoxicity: at 62.6 µM (top of the series); further: potency means the concentration at half of the fitted maximal effect; nearly all actives have a fitted effect of over 50% in size
Method in brief: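 Luminescence from CellTiter-Glo, added after the beta-lactamase FRET read, gave the viability signal. Cells were HSE-bla HeLa treated with DMSO-dissolved compounds for 5 h at 37 C following overnight plating.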

[7] = qHTS assay for small molecule activators of the heat shock response signaling pathway (AID 743210; active means well fitted activation curve with a large enough effect in the signal ratio in the repeat runs, with a control signal flat, not every such curve was filed as active; inconclusive means weak or mixed curves; the % refers to the signal ratio; further: potency means the concentration at half of the fitted maximal effect); conditions: HeLa HSE-bla reporter, beta-lactamase ratio, 5 h; activation: at 62.6 µM (top of the series)
Method in brief: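 Quantitative high-throughput format using an engineered HeLa line in which heat shock response elements drive beta-lactamase; after 5 h with compound, cells received a B/G FRET substrate and fluorescence was read.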

[8] = qHTS assay to identify small molecule agonists of the peroxisome proliferator-activated receptor delta (PPARd) signaling pathway - cell viability counter screen (AID 743211); conditions: PPARd-bla HEK293H viability, CellTiter-Glo luminescence, 17 h; activity change, negative = cytotoxicity: at 62.6 µM (top of the series); further: potency means the concentration at half of the fitted maximal effect; nearly all actives have a fitted effect of over 55% in size
Method in brief: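 Viability was measured as CellTiter-Glo luminescence (30 min, room temperature) in the same wells as the beta-lactamase readout. GeneBLAzer PPARd UAS-bla HEK293H cells received compound after 5 h plating and were incubated 17 h at 37 C.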

[9] = qHTS assay to identify small molecule antagonists of the peroxisome proliferator-activated receptor delta (PPARd) signaling pathway - cell viability counter screen (AID 743213); conditions: PPARd-bla HEK293H viability, CellTiter-Glo luminescence, 17 h; viability change, negative = cytotoxic: at 62 µM (top of the series) unless noted; further: potency means the concentration at half of the fitted maximal effect; nearly all actives have a fitted effect of over 50% in size
Method in brief: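 Viability counter-screen, qHTS format: PPARd-bla HEK293H, L165041 300 nM final, 17 h compound exposure at 37 C, CellTiter-Glo luminescence after 30 min RT.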

[10] = biological target: Peroxisome proliferator-activated receptor delta (Homo sapiens) (UniProt Q03181); assay: qHTS assay to identify small molecule antagonists of the peroxisome proliferator-activated receptor delta (PPARd) signaling pathway (AID 743215; active means well fitted inhibition curve with a large enough effect in the signal ratio in the repeat runs, not every such curve was filed as active; inconclusive means weak or mixed curves, or effect the other way; inactive means no such curve, though single readings can be large or run the other way; the % refers to the signal ratio;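 further: cells stimulated with agonist L165041 at 300 nM final during compound exposure; potency means the concentration at half of the fitted maximal effect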); conditions: HEK293H PPARd-UAS-bla, beta-lactamase FRET ratio, antagonist, 17 h; ratio activity, negative = inhibition: at 62 µM (top of the series) unless noted
Sequence of UniProt Q03181 (Q03181 whole entry, looked up): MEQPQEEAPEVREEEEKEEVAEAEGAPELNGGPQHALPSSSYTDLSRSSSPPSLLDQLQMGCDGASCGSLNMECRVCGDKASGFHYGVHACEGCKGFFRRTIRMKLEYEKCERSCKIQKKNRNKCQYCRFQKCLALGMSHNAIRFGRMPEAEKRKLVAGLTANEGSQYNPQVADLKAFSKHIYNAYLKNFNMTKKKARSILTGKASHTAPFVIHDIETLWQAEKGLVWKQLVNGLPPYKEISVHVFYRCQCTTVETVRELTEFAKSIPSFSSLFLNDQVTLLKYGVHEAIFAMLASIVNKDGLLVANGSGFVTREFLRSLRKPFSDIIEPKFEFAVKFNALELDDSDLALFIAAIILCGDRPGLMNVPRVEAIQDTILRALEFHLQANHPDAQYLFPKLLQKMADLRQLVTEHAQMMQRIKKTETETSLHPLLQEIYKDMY
Method in brief: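 Read-out is beta-lactamase FRET fluorescence, measured 2 h after substrate addition at room temperature. Beforehand, UAS-bla HEK293H cells carrying the PPARd reporter were exposed to compounds with L165041 at 300 nM final for 17 h at 37 C.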

[11] = biological target: Bile acid receptor (Homo sapiens) (UniProt Q96RI1); assay: qHTS assay to identify small molecule antagonists of the farnesoid-X-receptor (FXR) signaling pathway (AID 743217; active means well fitted inhibition curve with a large enough effect in the signal ratio in the repeat runs, not every such curve was filed as active; inconclusive means weak or mixed curves, or effect the other way; inactive means no such curve, though single readings can be large or run the other way; the % refers to the signal ratio; further: potency means the concentration at half of the fitted maximal effect); conditions: HEK293T FXR-UAS-bla, beta-lactamase ratio, CDCA-stimulated, 16 h; activity change, negative = inhibition: at 62.6 µM (top of the series) unless noted
Sequence of UniProt Q96RI1 (Q96RI1 whole entry, looked up): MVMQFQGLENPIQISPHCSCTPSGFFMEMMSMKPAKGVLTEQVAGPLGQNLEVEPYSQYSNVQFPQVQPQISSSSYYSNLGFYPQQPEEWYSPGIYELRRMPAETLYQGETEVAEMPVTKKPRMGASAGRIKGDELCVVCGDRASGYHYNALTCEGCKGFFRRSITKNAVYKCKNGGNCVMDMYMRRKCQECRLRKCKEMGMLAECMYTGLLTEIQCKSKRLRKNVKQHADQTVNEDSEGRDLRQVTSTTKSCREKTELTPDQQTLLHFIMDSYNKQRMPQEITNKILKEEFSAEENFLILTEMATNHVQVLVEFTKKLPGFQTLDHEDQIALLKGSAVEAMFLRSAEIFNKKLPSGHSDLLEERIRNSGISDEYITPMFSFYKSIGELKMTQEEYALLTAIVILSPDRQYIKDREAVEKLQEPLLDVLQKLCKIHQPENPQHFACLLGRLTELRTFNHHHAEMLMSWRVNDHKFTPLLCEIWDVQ
Method in brief: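 HEK 293T FXR-UAS-bla, 5000 cells/well; compound + CDCA 50 uM final; 16 h, 37 °C; B/G FRET substrate 2 h RT; fluorescence.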

[12] = qHTS assay to identify small molecule agonists of the farnesoid-X-receptor (FXR) signaling pathway - cell viability counter screen (AID 743218); conditions: FXR-bla HEK293T viability, CellTiter-Glo luminescence, 16 h; viability change, negative = cytotoxic: at 62.6 µM (top of the series) unless noted; further: potency means the concentration at half of the fitted maximal effect; nearly all actives have a fitted effect of over 45% in size
Method in brief: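 HEK 293T FXR-bla cells; 5 h pre-incubation, 16 h compound exposure at 37 C; LiveBLAzer substrate 2 h RT, then CellTiter-Glo 30 min RT, luminescence.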

[13] = qHTS assay to identify small molecule antagonists of the farnesoid-X-receptor (FXR) signaling pathway - cell viability counter screen (AID 743221; active means well fitted cell-killing curve with a large enough effect in the repeat runs, not every such curve was filed as active; inconclusive means weak or mixed curves, or effect the other way; inactive means no such curve, though single readings can be large or run the other way; further: potency means the concentration at half of the fitted maximal effect; nearly all actives have a fitted effect of over 50% in size); conditions: FXR-bla HEK293T viability, CellTiter-Glo luminescence, 16 h; activity change, negative = cytotoxicity: at 62.6 µM (top of the series)
Method in brief: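 Cytotoxicity counter screen run in the FXR-bla reporter wells: HEK 293T cells exposed to compound with 50 uM (final) chenodeoxycholic acid for 16 h, 37 C, then viability measured by CellTiter-Glo luminescence after 30 min, room temperature.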

[14] = biological target: Vitamin D3 receptor (Homo sapiens) (UniProt P11473); assay: qHTS assay to identify small molecule antagonists of the vitamin D receptor (VDR) signaling pathway (AID 743223; active means well fitted inhibition curve with a large enough effect in the signal ratio in the repeat runs, not every such curve was filed as active; inconclusive means weak or mixed curves, or effect the other way; inactive means no such curve, though single readings can be large or run the other way; the % refers to the signal ratio; further: potency means the concentration at half of the fitted maximal effect); conditions: VDR-UAS-bla HEK293T, beta-lactamase FRET ratio, 16 h; activity change, negative = inhibition: at 61 µM (top of the series) unless noted
Sequence of UniProt P11473 (P11473 whole entry, looked up): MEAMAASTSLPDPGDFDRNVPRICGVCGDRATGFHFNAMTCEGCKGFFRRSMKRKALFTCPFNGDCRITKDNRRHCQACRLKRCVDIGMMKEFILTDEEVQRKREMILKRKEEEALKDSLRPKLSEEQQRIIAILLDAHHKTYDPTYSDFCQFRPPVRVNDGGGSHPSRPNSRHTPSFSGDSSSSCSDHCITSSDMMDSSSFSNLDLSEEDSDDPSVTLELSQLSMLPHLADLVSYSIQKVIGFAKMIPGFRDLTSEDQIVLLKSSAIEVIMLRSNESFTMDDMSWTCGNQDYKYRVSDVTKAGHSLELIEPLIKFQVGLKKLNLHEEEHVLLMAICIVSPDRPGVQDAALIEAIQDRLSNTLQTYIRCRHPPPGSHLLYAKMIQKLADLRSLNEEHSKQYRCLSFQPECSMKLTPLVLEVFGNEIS
Method in brief: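 Antagonist mode: compound added to VDR-bla cells alongside agonist 1alpha,25-dihydroxyvitamin D3 (3 nM final), incubation 16 h at 37C. Read-out is LiveBLAzer FRET fluorescence, 2 h at room temperature.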

[15] = qHTS assay for small molecule agonists of the antioxidant response element (ARE) signaling pathway - cell viability counter screen (AID 743203; calls by dose curve; further: potency means the concentration at half of the fitted maximal effect; nearly all actives have a fitted effect of over 55% in size); conditions: ARE-bla HepG2 viability, CellTiter-Glo luminescence, 16 h; viability change, negative = cytotoxic: at 73.3 µM (top of the series)
Method in brief: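 HepG2 cells carrying ARE-driven beta-lactamase; 2,000 cells/well; 5 hrs plating; compound pinned from DMSO; 16 hrs 37C/5% CO2; CellTiter-Glo added; 30 min RT; luminescence.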

[16] = biological target: Bile acid receptor (Homo sapiens) (UniProt Q96RI1); assay: qHTS assay to identify small molecule agonists of the farnesoid-X-receptor (FXR) signaling pathway (AID 743220; active means well fitted activation curve with a large enough effect in the signal ratio in the repeat runs, not every such curve was filed as active; inconclusive means weak or mixed curves, or effect the other way; the % refers to the signal ratio; further: on the % scale 0 is the no-effect control and ±100 the full control effect); conditions: HEK293T FXR-UAS-bla, beta-lactamase FRET ratio, 16 h; activation: at 62.6 µM (top of the series) unless noted
Method in brief: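 Beta-lactamase reporter under UAS control in GeneBLAzer FXR HEK 293T cells (5000/well) measured with LiveBLAzer FRET substrate after 2 h at room temperature. Compound exposure lasted 16 h at 37C.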

[17] = biological target: Vitamin D3 receptor (Homo sapiens) (UniProt P11473); assay: qHTS assay to identify small molecule agonists of the vitamin D receptor (VDR) signaling pathway (AID 743222; calls by dose curve; further: potency means the concentration at half of the fitted maximal effect); conditions: HEK293T VDR-UAS-bla, beta-lactamase FRET ratio, 16 h; activation: at 63.5 µM (top of the series) unless noted
Method in brief: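 VDR-bla cells, 2,000/well; 4 h preincubation 37C; cpd (DMSO) 16 h; LiveBLAzer B/G substrate 2 h RT; fluorescence intensity read.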

[18] = ratio activity, negative = inhibition: at 62.6 µM (top of the series) unless noted
Tags describe the fitted curve by direction and shape or compound fluorescence and quenching.

Compound: C=C(C)C(=O)OCC(O)COc1ccc(C(C)(C)c2ccc(OCC(O)COC(=O)C(=C)C)cc2)cc1 (stereo not given)
- Potency [1]: active: 61.1 µM
- Potency [2]: inconclusive: 54.9 µM [cytotoxic]
- Potency [3, 18]: inconclusive: 54.9 µM
- Potency [4]: inconclusive: 61.6 µM [cytotoxic, single point]
- activation [5]: inconclusive: 31.2%
- Potency [6]: inconclusive: 54.9 µM [cytotoxic, single point]
- Potency [7]: inconclusive: 43.6 µM [falling, partial curve]
- Potency [8]: active: 54.9 µM
- Potency [9]: active: 13.8 µM
- Potency [10]: active: 27.5 µM
- Potency [11]: inconclusive: 54900 nM [partial curve]
- Potency [12]: inconclusive: 54.9 µM [cytotoxic, single point]
- Potency [13]: inconclusive: 54.9 µM [falling, single point]
- Potency [14]: inconclusive: 43.6 µM [partial curve]

Compound: COc1c(C)c2c(c(O)c1C/C=C(\C)CCC(=O)O)C(=O)OC2
- Potency [1]: inconclusive: 5.69 µM [rising, full curve, poor fit]
- activation [2]: inconclusive: -9.07% [at 26.2 µM]
- Potency [3, 18]: active: 0.473 µM
- activation [5]: inconclusive: 31.9%
- Potency [15]: inconclusive: 1.88 µM [cytotoxic, full curve]
- Potency [8]: inconclusive: 1.88 µM [cytotoxic, full curve]
- Potency [9]: inconclusive: 0.75 µM [cytotoxic, full curve]
- Potency [11]: inconclusive: 750 nM [full curve]
- Potency [12]: inconclusive: 0.422 µM [cytotoxic, full curve]
- Potency [13]: inconclusive: 0.944 µM [falling, full curve]
- Potency [14]: inconclusive: 0.425 µM [inhibitor, full curve]

Compound: CN(C)c1ccc(/C=C/c2ccc([N+](=O)[O-])cc2)cc1
- Potency [1]: inconclusive: 1.38 µM [rising, partial curve, poor fit]
- Potency [2]: inconclusive: 1.4 µM [rising, partial curve, poor fit]
- ratio activity, negative = inhibition [3, 18]: inconclusive: -30.8% [at 5.95 µM]
- activation [5]: inactive: -18.5% [at 8.36 µM]
- Potency [11]: inconclusive: 495 nM [rising, full curve, poor fit]
- activation [16]: inactive: -3.79% [at 5.95 µM]
- activation [17]: inconclusive: -24.3% [at 6.01 µM]

Compound: Cc1[nH]cnc1CN1CCc2c(c3ccccc3n2C)C1=O
- Potency [1]: inactive
- Potency [3, 18]: inconclusive: 33.5 µM [activator, partial curve, poor fit]

Compound: CCCCCCCCCCCCCCCCCC(=O)OCC(O)CO (stereo not given)
- Potency [1]: inconclusive: 11.9 µM [cytotoxic, partial curve, poor fit]
- ratio activity, negative = inhibition ([3]; at 62.6 µM (top of the series)): inactive: -1.71% and inactive: 5.13%
- ratio activity, negative = inhibition [3, 18]: inconclusive: 20.3%
- Potency [4]: inactive
- Potency [5]: inactive
- Potency [15]: inconclusive: 10.6 µM [cytotoxic, partial curve]
- Potency [6]: inconclusive: 0.841 µM [cytotoxic, partial curve, poor fit]
- activity change, negative = inhibition [14]: inconclusive: 0.208%

Compound: Nc1ccccc1Nc1ccccc1
- Potency [1]: inconclusive: 43.4 µM [cytotoxic, partial curve]
- activation [2]: inconclusive: -14.9%
- Potency [3, 18]: active: 43.8 µM
- Potency [5]: inconclusive: 6.13 µM [falling, partial curve, poor fit]
- Potency [15]: inconclusive: 8.66 µM [rising, partial curve, poor fit]
- Potency [7]: inconclusive: 4.91 µM [activator, full curve]
- Potency [17]: inconclusive: 31 µM [rising, partial curve]
- Potency [14]: inconclusive: 61.8 µM [rising, partial curve, poor fit]
